Measured values taken from patent US20230134580A1 (SHANGHAI HENLIUS BIOTECH, published 2023).

Biological target: T1, human TIGIT (T cell immunoreceptor with Ig and ITIM domains), expressed on cells (human, UniProt Q495A1 22-244)
T1 sequence: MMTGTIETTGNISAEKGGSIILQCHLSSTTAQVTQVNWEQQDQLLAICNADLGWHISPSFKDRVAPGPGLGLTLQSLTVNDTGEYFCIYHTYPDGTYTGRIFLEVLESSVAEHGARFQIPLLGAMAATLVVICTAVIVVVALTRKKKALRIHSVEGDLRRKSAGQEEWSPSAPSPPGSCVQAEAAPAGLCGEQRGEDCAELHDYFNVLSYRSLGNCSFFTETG
Experiment: cell-based or functional assay

EC50 (read off the curve), NFAT luciferase reporter, TIGIT blockade: ~1 nM
B1: 2A3-LT-Fc (hotspot corrected 2A3, M to L and D to T), wild type Fc (Fc fusion)
chain: QVQLVESGGGVVQPGRSLRLSCAASGGSFSSYPMGWFRQAPGKERESVAAISSDLRFTYYADSVKGRFTISRDNSKNTLYLQMNSLRAEDTAVYYCAARTSGVGYYSRAQWYDYWGQGTLVTVSS[letters of human IgG1 Fc not shown]
